According to the supplement of paper PMC12217912:
The other results are listed elsewhere or left out. The full chains were built here from the parent and the listed change. Inactive controls read about 0.05.

B1: TEV protease; numbered along this chain (parent)
chain: MGESLFKGPRDYNPISSSICHLTNESDGHTTSLYGIGFGPFIITNKHLFRRNNGTLVVQSLHGVFKVKDTTTLQQHLVDGRDMIIIRMPKDFPPFPQKLKFREPQREERICLVTTNFQTKSMSSMVSDTSCTFPSGDGIFWKHWIQTKDGQCGSPLVSTRDGFIVGIHSASNFTNTNNYFTSVPKNFMELLTNQEAQQWVSGWRLNADSVLWGGHKVFMVKPEEPFQPVKEATQL

Variants of: B1
Assay: raw area under fraction-flipped curve 0-4 h after induction (AUC4h, not background-subtracted), DNA-recorder readout of cleavage of the substrate (dimensionless); higher = more cleavage of the substrate by the protease variant
Conditions: temperature: 34 °C; time window: 0-4 h after rhamnose induction
Description: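 In vivo DNA recorder in E. coli TOP10(DE3) ΔrhaA at 34 °C. Each TEVp single-site mutant (parent TEVp 0) is paired with a single-site variant of the 7-mer TEVs (canonical ENLYFQ|S). The substrate sits between flexible linkers in a Bxb1-sfGFP-TEVs-SsrA fusion, so cleavage stabilises Bxb1 and speeds flipping of a recombination array, read by NGS. The value is the raw area under the fraction-flipped curve over 0-4 h after rhamnose induction (AUC4h), with ≥20 reads per time point. It is not background-subtracted; inactive controls average about 0.047.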
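Note: Bxb1 expression induced with 0.2% (w/v) L-rhamnose at OD600 near 0.5, cultures sampled hourly, flipped fraction per protease–substrate barcode pair counted by paired-end Illumina sequencing.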

Variant	area with substrate EALYFQS	area with substrate EDLYFQS	area with substrate EFLYFQS	area with substrate EKLYFQS	area with substrate ELLYFQS	area with substrate EMLYFQS	area with substrate ERLYFQS	area with substrate ESLYFQS	area with substrate EVLYFQS	area with substrate EWLYFQS	area with substrate ECLYFQS	area with substrate EELYFQS	area with substrate EGLYFQS	area with substrate EHLYFQS	area with substrate EILYFQS	area with substrate EPLYFQS	area with substrate EQLYFQS	area with substrate ETLYFQS	area with substrate EYLYFQS
MGESLFKGPRDYNPISSSICHLTNESDGHTTSLYGIGFGPFIITNKHLFRRNNGTLVVQSLHGVFKVKDTTTLQQHLVDGRDMIIIRMPKDFPPFPQKLKFREPQREERICLVTTNFQTKSMSSMVSDTSCTFPSGDGIFWKHWIQTKDGQCGSPLVSTRDGFIVGIHSAENFTNTNNYFTSVPKNFMELLTNQEAQQWVSGWRLNADSVLWGGHKVFMVKPEEPFQPVKEATQL [S171E]	0.0335	0.0698	0.0628	0.047	0.0581	0.0562	0.0576	0.0602	0.0538	0.0674									
MGESLFKGPRDYNPISSSICHLTNESDGHTTSLYGIGFGPFIITNKHLFRRNNGTLVVQSLHGVFKVKDTTTLQQHLVDGRDMIIIRMPKDFPPFPQKLKFREPQREERICLVTTNFQTKSMSSMVSDTSCTFPSGDGIFWKHWIQTKDRQCGSPLVSTRDGFIVGIHSASNFTNTNNYFTSVPKNFMELLTNQEAQQWVSGWRLNADSVLWGGHKVFMVKPEEPFQPVKEATQL [G150R]	0.0615	0.0534		0.0702	0.0498	0.0712	0.0546	0.0642	0.0285	0.0557	0.0593	0.0635	0.065	0.0598	0.0593	0.0523	0.0576	0.086	0.0404
MGESLFKGPRDYNPISSSICHLTNESDGHTTSLYGIGFGPFIITNKHLFRRNNGTLVVQSLHGVFKVKDTTTLQQHLVDGRDMIIIRMPKDFPPFPQKLKFREPQREERICLVTTNFQTKSMSSMVSDTSCTFPSGDGIFWKHWIQTKDGQCGSLLVSTRDGFIVGIHSASNFTNTNNYFTSVPKNFMELLTNQEAQQWVSGWRLNADSVLWGGHKVFMVKPEEPFQPVKEATQL [P155L]	0.0656	0.0586	0.0446	0.0785	0.0676	0.0602	0.0446	0.0621	0.051	0.0579	0.059			0.0625	0.0651	0.0573	0.0538		0.0629
MGESLFKGPRDYNPISSSICHLTNESDGHTTSLYGIGFGPFIITNKHLFRRNNGTLVVQSLHGVFKVKDTTTLQQHLVDGRDMIIIRMPKDFPPFPQKLKFREPQREERICLVTTNFQTKSMSSMVSDTSCTFPSGDGIFWKHWIQTKDGQCGSALVSTRDGFIVGIHSASNFTNTNNYFTSVPKNFMELLTNQEAQQWVSGWRLNADSVLWGGHKVFMVKPEEPFQPVKEATQL [P155A]	0.117	0.113		0.135		0.115	0.107	0.0966	0.0952	0.103	0.101	0.107		0.119	0.09		0.134		
MGESLFKGPRDYNPISSSICHLTNESDGHTTSLYGIGFGPFIITNKHLFRRNNGTLVVQSLHGVFKVKDTTTLQQHLVDGRDMIIIRMPKDFPPFPQKLKFREPQREERICLVTTNFQTKSMSSMVSDTSCTFPSGDGIFWKHWIQTGDGQCGSPLVSTRDGFIVGIHSASNFTNTNNYFTSVPKNFMELLTNQEAQQWVSGWRLNADSVLWGGHKVFMVKPEEPFQPVKEATQL [K148G]	0.111	0.104		0.0464	0.0725	0.0983	0.0769	0.0872	0.083	0.0561		0.0845		0.0639	0.0754		0.0927	0.0778	
MGESLFKGPRDYNPISSSICHLTNESDGHTTSLYGIGFGPFIITNKHLFRRNNGTLVVQSLHGVFKVKDTTTLQQHLVDGRDMIIIRMPKDFPPFPQKLKFREPQREERICLVTTNFQTKSMSSMVSDTSCTFPSGDGIFWKHWIQTKDGQCGSPLVSTRDGFCVGIHSASNFTNTNNYFTSVPKNFMELLTNQEAQQWVSGWRLNADSVLWGGHKVFMVKPEEPFQPVKEATQL [I164C]	0.0848		0.102	0.0942	0.0785	0.0918	0.0865	0.0902		0.09	0.0898	0.0958		0.102	0.0927		0.109		0.0742
MGESLFKGPRDYNPISSSICHLTNESDGHTTSLYGIGFGPFIITNKHLFRRNNGTLVVQSLHGVFKVKDTTTLQQHLVDGRDMIIIRMPKDFPPFPQKLKFREPQREERICLVTTNFQTKSMSSMVSDTSCTFPSGDGIFWKHWIQEKDGQCGSPLVSTRDGFIVGIHSASNFTNTNNYFTSVPKNFMELLTNQEAQQWVSGWRLNADSVLWGGHKVFMVKPEEPFQPVKEATQL [T147E]	0.0606				0.0626	0.0668	0.0609	0.0534	0.069	0.0625	0.0599	0.0499	0.0677	0.059	0.0595	0.0592	0.0538		0.0481
MGESLFKGPRDYNPISSSICHLTNESDGHTTSLYGIGFGPFIITNKHLFRRNNGTLVVQSLHGVFKVKDTTTLQQHLVDGRDMIIIRMPKDFPPFPQKLKFREPQREERICLVTTNFQTKSMSSMVSDTSCTFPSGDGIFWKHWIQTKDGQCGSPLVSTRDGVIVGIHSASNFTNTNNYFTSVPKNFMELLTNQEAQQWVSGWRLNADSVLWGGHKVFMVKPEEPFQPVKEATQL [F163V]	0.0566	0.13	0.0853				0.0981	0.0439		0.121			0.0872			0.101		0.111	
MGESLFKGPRDYNPISSSICHLTNESDGHTTSLYGIGFGPFIITNKHLFRRNNGTLVVQSLHGVFKVKDTTTLQQHLVDGRDMIIIRMPKDFPPFPQKLKFREPQREERICLVTTNFQTKSMSSMVSDTSCTFPSGDGIFWKHWIQTKDGQCGSPWVSTRDGFIVGIHSASNFTNTNNYFTSVPKNFMELLTNQEAQQWVSGWRLNADSVLWGGHKVFMVKPEEPFQPVKEATQL [L156W]	0.0497	0.0622		0.0628	0.0578	0.0541	0.0489	0.0756	0.0568	0.0566	0.0623	0.0601	0.0647	0.0781	0.0609	0.0604		0.0601	0.0465
